Laboratory results reported in article PMC9491098, “Discovery of novel drug-like antitubercular hits targeting the MEP pathway enzyme DXPS by strategic application of ligand-based virtual screening” (Chemical Science, 2022).

Target: DrDXPS (H304A) (Deinococcus radiodurans, UniProt Q9RUB5, H304A)
Conditions: site-directed mutagenesis study

Compound	activity against DrDXPS H304A mutant
OCc1cn(Cc2ccc(Cl)c(Cl)c2)c2ccccc12 [Compound 7]	retained some activity
Cc1ncc(Cc2csc(CCO)c2C)c(N)n1 [DZT, deazathiamine, reference compound]	completely lost its activity
